# The list shows a part of the results.
# B1: SGC, Q9M345 (protein)
# chain: QNLNFTYNGFHPPLTDISLQGLATVTPNGLLKLTNTSVQKTGHAFCTERIRFKDSQNGNVSSFSTTFVFAIHSQIPTLSGHGIAFVVAPTLGLPFALPSQYIGLFNISNNGNDTNHIFAVEFDTIQSSEFGDPNDNHVGIDLNGLRSANYSTAGYRDDHDKFQNLSLISRKRIQVWIDYDNRSHRIDVTVAPFDSDKPRKPLVSYVRDLSSILLEDMYVGFSSATGSVLSEHFLVGWSFRLNGEAPMLSLSKLPKLPRFEPRRIS
# Key:
# Assay in all cases: glycan array binding signal (z-score within array); higher = stronger binding
# Conditions in all cases: glycan notation: IUPAC condensed, linker removed
# [1] = biological target: Gal(b1-4)GlcNAc(b1-3)Gal(b1-4)GlcNAc(b1-3)Gal(b1-4)GlcNAc(b1-3)Gal(b1-4)GlcNAc(b1-2)Man(a1-3)[Gal(b1-4)GlcNAc(b1-3)Gal(b1-4)GlcNAc(b1-3)Gal(b1-4)GlcNAc(b1-3)Gal(b1-4)GlcNAc(b1-2)Man(a1-6)]Man(b1-4)GlcNAc(b1-4)GlcNAc
# Outline: (§1)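 The binding signal is a Z-score computed within each array and averaged over linkers. Arrays of the same protein sequence at different concentrations or buffers were also averaged together. Data originate from 3228 arrays in the Consortium for Functional Glycomics database, kept only where the protein sequence was available.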
# [2] = biological target: Gal(b1-4)GlcNAc(b1-3)Gal(b1-4)GlcNAc(b1-3)Gal(b1-4)GlcNAc(b1-3)Gal(b1-4)GlcNAc(b1-2)Man(a1-3)[Gal(b1-4)GlcNAc(b1-3)Gal(b1-4)GlcNAc(b1-3)Gal(b1-4)GlcNAc(b1-3)Gal(b1-4)GlcNAc(b1-2)Man(a1-6)]Man(b1-4)GlcNAc(b1-4)[Fuc(a1-6)]GlcNAc
# Outline: as §1
# [3] = biological target: Gal(b1-4)GlcNAc(b1-3)Gal(b1-4)GlcNAc(b1-3)Gal(b1-4)GlcNAc(b1-3)Gal(b1-4)GlcNAc(b1-2)[Gal(b1-4)GlcNAc(b1-3)Gal(b1-4)GlcNAc(b1-3)Gal(b1-4)GlcNAc(b1-3)Gal(b1-4)GlcNAc(b1-6)]Man(a1-6)[Gal(b1-4)GlcNAc(b1-3)Gal(b1-4)GlcNAc(b1-3)Gal(b1-4)GlcNAc(b1-3)Gal(b1-4)GlcNAc(b1-2)Man(a1-3)]Man(b1-4)GlcNAc(b1-4)[Fuc(a1-6)]GlcNAc
# Outline: as §1
# [4] = biological target: Gal(b1-4)GlcNAc(b1-3)Gal(b1-4)GlcNAc(b1-3)Gal(b1-4)GlcNAc(b1-3)Gal(b1-4)GlcNAc(b1-3)Gal(b1-4)GlcNAc(b1-2)Man(a1-3)[Gal(b1-4)GlcNAc(b1-3)Gal(b1-4)GlcNAc(b1-3)Gal(b1-4)GlcNAc(b1-3)Gal(b1-4)GlcNAc(b1-3)Gal(b1-4)GlcNAc(b1-2)Man(a1-6)]Man(b1-4)GlcNAc(b1-4)GlcNAc
# Outline: as §1
# [5] = biological target: Gal(b1-4)GlcNAc(b1-3)Gal(b1-4)GlcNAc(b1-3)Gal(b1-4)GlcNAc(b1-3)Gal(b1-4)GlcNAc(b1-3)Gal(b1-4)GlcNAc(b1-2)Man(a1-3)[Gal(b1-4)GlcNAc(b1-3)Gal(b1-4)GlcNAc(b1-3)Gal(b1-4)GlcNAc(b1-3)Gal(b1-4)GlcNAc(b1-3)Gal(b1-4)GlcNAc(b1-2)Man(a1-6)]Man(b1-4)GlcNAc(b1-4)[Fuc(a1-6)]GlcNAc
# Outline: as §1
# [6] = biological target: Gal(b1-4)GlcNAc(b1-3)Gal(b1-4)GlcNAc(b1-3)Gal(b1-4)GlcNAc(b1-3)Gal(b1-4)GlcNAc(b1-3)Gal(b1-4)GlcNAc(b1-2)[Gal(b1-4)GlcNAc(b1-3)Gal(b1-4)GlcNAc(b1-3)Gal(b1-4)GlcNAc(b1-3)Gal(b1-4)GlcNAc(b1-3)Gal(b1-4)GlcNAc(b1-6)]Man(a1-6)[Gal(b1-4)GlcNAc(b1-3)Gal(b1-4)GlcNAc(b1-3)Gal(b1-4)GlcNAc(b1-3)Gal(b1-4)GlcNAc(b1-3)Gal(b1-4)GlcNAc(b1-2)Man(a1-3)]Man(b1-4)GlcNAc(b1-4)[Fuc(a1-6)]GlcNAc
# Outline: as §1
# [7] = biological target: Gal(b1-4)GlcNAc(b1-3)Gal(b1-4)GlcNAc(b1-3)Gal(b1-4)GlcNAc(b1-3)Gal(b1-4)GlcNAc(b1-3)Gal(b1-4)GlcNAc(b1-3)Gal(b1-4)GlcNAc(b1-2)Man(a1-3)[Gal(b1-4)GlcNAc(b1-3)Gal(b1-4)GlcNAc(b1-3)Gal(b1-4)GlcNAc(b1-3)Gal(b1-4)GlcNAc(b1-3)Gal(b1-4)GlcNAc(b1-3)Gal(b1-4)GlcNAc(b1-2)Man(a1-6)]Man(b1-4)GlcNAc(b1-4)GlcNAc
# Outline: as §1
# [8] = biological target: Gal(b1-4)GlcNAc(b1-3)Gal(b1-4)GlcNAc(b1-3)GalNAc
# Outline: as §1
# [9] = biological target: Gal(b1-4)GlcNAc(b1-3)Gal(b1-4)GlcNAc(b1-3)[Gal(b1-4)GlcNAc(b1-3)Gal(b1-4)GlcNAc(b1-6)]GalNAc
# Outline: as §1
# [10] = biological target: Gal(b1-4)GlcNAc(b1-3)Gal(b1-4)GlcNAc(b1-6)[Gal(b1-3)]GalNAc
# Outline: as §1
# [11] = biological target: Gal(b1-4)GlcNAc(b1-3)Gal(b1-4)[Fuc(a1-3)]GlcNAc(b1-3)Gal(b1-4)[Fuc(a1-3)]GlcNAc
# Outline: as §1
# [12] = biological target: Gal(b1-4)GlcNAc(b1-3)GalNAc
# Outline: as §1
# [13] = biological target: Gal(b1-4)GlcNAc(b1-3)[Fuc(a1-3)GlcNAc(b1-6)]Gal(b1-4)Glc
# Outline: as §1
# [14] = biological target: Gal(b1-4)GlcNAc(b1-3)[Gal(b1-4)GlcNAc(b1-6)]Gal(b1-4)GlcNAc
# Outline: as §1
# [15] = biological target: Gal(b1-4)GlcNAc(b1-3)[GlcNAc(b1-6)]Gal(b1-4)GlcNAc
# Outline: as §1
# [16] = biological target: Gal(b1-4)GlcNAc(b1-6)Gal(b1-4)GlcNAc
# Outline: as §1
# [17] = biological target: Gal(b1-4)GlcNAc(b1-6)GalNAc
# Outline: as §1
# [18] = biological target: Gal(b1-4)GlcNAc(b1-6)[Gal(b1-3)]GalNAc
# Outline: as §1
# [19] = biological target: Gal(b1-4)GlcNAc(b1-6)[Gal(b1-4)GlcNAc(b1-3)]GalNAc
# Outline: as §1
# Gal(b1-4)GlcNAc6P = biological target: Gal(b1-4)GlcNAc6P
# Outline: as §1
# Gal(b1-6)Gal = biological target: Gal(b1-6)Gal
# Outline: as §1
# Gal3S(b1-3)GalNAc = biological target: Gal3S(b1-3)GalNAc
# Outline: as §1
# Gal3S(b1-3)GlcNAc = biological target: Gal3S(b1-3)GlcNAc
# Outline: as §1
# [20] = biological target: Gal3S(b1-3)[Fuc(a1-4)]GlcNAc
# Outline: as §1
# Gal3S(b1-4)Glc = biological target: Gal3S(b1-4)Glc
# Outline: as §1
# Gal3S(b1-4)Glc6S = biological target: Gal3S(b1-4)Glc6S
# Outline: as §1
# Gal3S(b1-4)GlcNAc = biological target: Gal3S(b1-4)GlcNAc
# Outline: as §1
# [21] = biological target: Gal3S(b1-4)[Fuc(a1-3)]Glc6S
# Outline: as §1
# [22] = biological target: Gal3S(b1-4)[Fuc(a1-3)]GlcNAc
# Outline: as §1
# [23] = biological target: Gal3S(b1-4)[Fuc(a1-3)]GlcNAc6S
# Outline: as §1
# Gal3S4S(b1-4)GlcNAc = biological target: Gal3S4S(b1-4)GlcNAc
# Outline: as §1
# Gal3S6S(b1-4)GlcNAc = biological target: Gal3S6S(b1-4)GlcNAc
# Outline: as §1
# Gal3S6S(b1-4)GlcNAc6S = biological target: Gal3S6S(b1-4)GlcNAc6S
# Outline: as §1
# Gal4S(b1-4)GlcNAc = biological target: Gal4S(b1-4)GlcNAc
# Outline: as §1
# Gal4S6S(b1-4)GlcNAc = biological target: Gal4S6S(b1-4)GlcNAc
# Outline: as §1
# Gal6P(b1-4)GlcNAc = biological target: Gal6P(b1-4)GlcNAc
# Outline: as §1
# Gal6S(b1-3)GlcNAc = biological target: Gal6S(b1-3)GlcNAc
# Outline: as §1
# Gal6S(b1-3)GlcNAc6S = biological target: Gal6S(b1-3)GlcNAc6S
# Outline: as §1
binder,measurement,setting,value
B1,glycan array binding signal (z-score),[1],4.57
same,glycan array binding signal (z-score),[2],5.27
same,glycan array binding signal (z-score),[3],8.45
same,glycan array binding signal (z-score),[4],1.78
same,glycan array binding signal (z-score),[5],1.76
same,glycan array binding signal (z-score),[6],5.39
same,glycan array binding signal (z-score),[7],0.604
same,glycan array binding signal (z-score),[8],-0.21
same,glycan array binding signal (z-score),[9],1.95
same,glycan array binding signal (z-score),[10],2.26
same,glycan array binding signal (z-score),[11],0.252
same,glycan array binding signal (z-score),[12],-0.094
same,glycan array binding signal (z-score),[13],-0.36
same,glycan array binding signal (z-score),[14],-0.25
same,glycan array binding signal (z-score),[15],-0.423
same,glycan array binding signal (z-score),[16],-0.298
same,glycan array binding signal (z-score),[17],1.76
same,glycan array binding signal (z-score),[18],0.322
same,glycan array binding signal (z-score),[19],0.103
same,glycan array binding signal (z-score),Gal(b1-4)GlcNAc6P,-0.448
same,glycan array binding signal (z-score),Gal(b1-6)Gal,-0.329
same,glycan array binding signal (z-score),Gal3S(b1-3)GalNAc,-0.382
same,glycan array binding signal (z-score),Gal3S(b1-3)GlcNAc,-0.366
same,glycan array binding signal (z-score),[20],-0.292
same,glycan array binding signal (z-score),Gal3S(b1-4)Glc,-0.369
same,glycan array binding signal (z-score),Gal3S(b1-4)Glc6S,-0.344
same,glycan array binding signal (z-score),Gal3S(b1-4)GlcNAc,-0.371
same,glycan array binding signal (z-score),[21],0.718
same,glycan array binding signal (z-score),[22],-0.341
same,glycan array binding signal (z-score),[23],-0.354
same,glycan array binding signal (z-score),Gal3S4S(b1-4)GlcNAc,-0.652
same,glycan array binding signal (z-score),Gal3S6S(b1-4)GlcNAc,-0.217
same,glycan array binding signal (z-score),Gal3S6S(b1-4)GlcNAc6S,-0.304
same,glycan array binding signal (z-score),Gal4S(b1-4)GlcNAc,-0.655
same,glycan array binding signal (z-score),Gal4S6S(b1-4)GlcNAc,-0.317
same,glycan array binding signal (z-score),Gal6P(b1-4)GlcNAc,-0.357
same,glycan array binding signal (z-score),Gal6S(b1-3)GlcNAc,-0.261
same,glycan array binding signal (z-score),Gal6S(b1-3)GlcNAc6S,-0.433

# Reference: the supplement of paper PMC8728848
